# From the supplement of paper PMC10369915
# The other results are listed elsewhere or left out. No stated cut-off is given here; in the data, active = 3.2 or more and inactive = the rest. Only a few entries rise above the background.
# B1: STAM_Y371_E366K (peptide)
# chain: KALSLYTKLMN
# B2: SRC_Y232_A237T (peptide)
# chain: QQLVAYYSKHT
# B3: SRC_Y530_E527K (peptide)
# chain: STKPQYQPGEN
# B4: STAT1_Y203_M202I (peptide)
# chain: LLKKIYLMLDN
# B5: SPTLC2_Y178_R183W_YF (peptide)
# chain: MGSFNYLGFAW
# B6: SPP1_Y225_S224N (peptide)
# chain: RGKDNYETSQL
# B7: SPTLC2_Y178_R183W (peptide)
# chain: MGSYNYLGFAW
# B8: ST3GAL6_Y306 (peptide)
# chain: MNKNAYHNVTA
# B9: SRC_Y522 (peptide)
# chain: AFLEDYFTSTE
# B10: SQOR_Y259_I264T (peptide)
# chain: NLTVNYKKNLT
# B11: SPTAN1_Y1020 (peptide)
# chain: FVPAAYVKKLD
# B12: SPRED3_Y72 (peptide)
# chain: KPGLVYNKVNP
# B13: SRC_Y530 (peptide)
# chain: STEPQYQPGEN
# B14: SQSTM1_Y148 (peptide)
# chain: SVCPDYDLCSV
# B15: STAT1_Y701 (peptide)
# chain: PKGTGYIKTEL
# B16: STAT1_Y170_D165G (peptide)
# chain: GLQDEYDFKCK
# B17: ST3GAL5_Y99 (peptide)
# chain: MKKMHYVDPDH
# B18: STAT1_Y170_D165H (peptide)
# chain: HLQDEYDFKCK
# B19: STAM_Y371 (peptide)
# chain: EALSLYTKLMN
# B20: SPINK5_Y440_R441H (peptide)
# chain: ELCSEYHKSRK
# B21: SRRT_Y798_Q793K (peptide)
# chain: KGLMPYGQPRP
# B22: SPRED3_Y72_V71I (peptide)
# chain: KPGLIYNKVNP
# B23: SRC_Y232 (peptide)
# chain: QQLVAYYSKHA
# B24: SPRR3_Y146 (peptide)
# chain: VPVPGYTKLPE
# B25: SPEN_Y633_YF (peptide)
# chain: QDRTFYESVRT
# B26: STAT1_Y668 (peptide)
# chain: PLKYLYPNIDK
# B27: SSX7_Y48_L43S_YF (peptide)
# chain: SEKISYVFMKR
# B28: SPTBN2_Y477_R480W (peptide)
# chain: TDIVAYSGWVQ
# B29: SRPK2_Y427 (peptide)
# chain: ESDYTYSSSYE
# B30: SPTBN2_Y834_E835K (peptide)
# chain: TLERHYKELQA
# B31: SRPK2_Y427_YF (peptide)
# chain: ESDFTYSSSFE
# B32: SPP1_Y225_Q229K (peptide)
# chain: RGKDSYETSKL
# B33: STAMBP_Y36 (peptide)
# chain: IPPRRYFRSGV
# B34: SRD5A2_Y91_V89L (peptide)
# chain: LFCLHYFHRTF
# B35: SSX7_Y48_YF (peptide)
# chain: LEKISYVFMKR
# B36: SQSTM1_Y433 (peptide)
# chain: LDTIQYSKHPP
# B37: SPTLC2_Y178 (peptide)
# chain: MGSYNYLGFAR
# Target: SHP2 C-SH2 domain E139D
# Assay: enrichment score (SH2-bound / input frequency) (ratio); bacterial display of known human phosphotyrosine sites (pTyr-Var adds point mutants) read by sequencing; higher = stronger binding; tyrosines were phosphorylated by kinases first
# Conditions: peptide library: pTyr-Var
# 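Further: displayed peptides selected on beads carrying the immobilized SH2 domain, with library peptides lacking any tyrosine serving as negative controls.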
row,Binder,enrichment score
1,B1,inactive: 1.14
2,B2,inactive: 1.22
3,B3,inactive: 0.616
4,B4,inactive: 1.69
5,B5,inactive: 0.664
6,B6,inactive: 0.557
7,B7,inactive: 1.15
8,B8,inactive: 0.674
9,B9,inactive: 1.47
10,B10,inactive: 0.716
11,B11,inactive: 0.744
12,B12,inactive: 1.2
13,B13,inactive: 0.323
14,B14,inactive: 1.07
15,B15,inactive: 1.27
16,B16,inactive: 0.932
17,B17,inactive: 0.578
18,B18,inactive: 1.58
19,B19,inactive: 0.899

row,Binder,enrichment score
1,B20,inactive: 0.852
2,B21,inactive: 0.995
3,B22,inactive: 1.33
4,B23,inactive: 0.987
5,B24,inactive: 0.867
6,B25,inactive: 0.518
7,B26,inactive: 0.891
8,B27,inactive: 0.481
9,B28,inactive: 0.985
10,B29,inactive: 0.506
11,B30,inactive: 1.04
12,B31,inactive: 0.549
13,B32,inactive: 0.457
14,B33,inactive: 0.221
15,B34,active: 3.47
16,B35,inactive: 1.2
17,B36,inactive: 0.496
18,B37,inactive: 1.91

# Target: SHP2 C-SH2 domain wild-type
# Assay: as above
# Conditions: peptide library: pTyr-Var
row,Binder,enrichment score
1,B1,inactive: 2.22
2,B2,inactive: 0.768
3,B3,inactive: 0.513
4,B4,inactive: 1.57
5,B5,inactive: 0.825
6,B6,inactive: 0.534
7,B7,inactive: 0.983
8,B8,inactive: 0.531
9,B9,inactive: 1.15
10,B10,inactive: 0.68
11,B11,inactive: 1.12
12,B12,inactive: 1.41
13,B13,inactive: 0.391
14,B14,inactive: 0.956
15,B15,inactive: 0.67
16,B16,inactive: 0.621
17,B17,inactive: 0.653
18,B18,inactive: 1.12
19,B19,inactive: 1.58

row,Binder,enrichment score
1,B20,inactive: 0.909
2,B21,inactive: 0.625
3,B22,inactive: 1.35
4,B23,inactive: 0.593
5,B24,inactive: 1.04
6,B25,inactive: 1.27
7,B26,inactive: 0.863
8,B27,inactive: 0.666
9,B28,inactive: 0.829
10,B29,inactive: 0.451
11,B30,inactive: 0.988
12,B31,inactive: 0.711
13,B32,inactive: 0.565
14,B33,inactive: 0.285
15,B34,active: 4.26
16,B35,inactive: 1.3
17,B36,inactive: 0.582
18,B37,inactive: 2.7

# Target: SHP2 N-SH2 domain L43F
# Assay: as above
# Conditions: peptide library: pTyr-Var
row,Binder,enrichment score
1,B1,inactive: 0.918
2,B2,inactive: 1.13
3,B3,inactive: 0.561
4,B4,inactive: 1.59
5,B5,inactive: 0.883
6,B6,inactive: 0.583
7,B7,inactive: 0.895
8,B8,inactive: 0.66
9,B9,inactive: 1.18
10,B10,inactive: 0.779
11,B11,inactive: 0.733
12,B12,inactive: 1.24
13,B13,inactive: 0.301
14,B14,inactive: 1.41
15,B15,inactive: 1.07
16,B16,inactive: 0.641
17,B17,inactive: 0.873
18,B18,inactive: 1.35
19,B19,inactive: 0.831

row,Binder,enrichment score
1,B20,inactive: 0.727
2,B21,inactive: 0.714
3,B22,inactive: 1.25
4,B23,inactive: 0.955
5,B24,inactive: 0.993
6,B25,inactive: 0.556
7,B26,inactive: 2.03
8,B27,inactive: 0.619
9,B28,inactive: 0.838
10,B29,inactive: 0.4
11,B30,inactive: 0.816
12,B31,inactive: 0.712
13,B32,inactive: 0.713
14,B33,inactive: 0.336
15,B34,active: 3.85
16,B35,inactive: 0.98
17,B36,inactive: 0.824
18,B37,inactive: 1.77

# Target: SHP2 N-SH2 domain T42A
# Assay: as above
# Conditions: peptide library: pTyr-Var
row,Binder,enrichment score
1,B1,inactive: 2.47
2,B2,inactive: 0.901
3,B3,inactive: 0.58
4,B4,inactive: 1.45
5,B5,inactive: 0.594
6,B6,inactive: 0.356
7,B7,inactive: 1.63
8,B8,inactive: 0.51
9,B9,inactive: 1.41
10,B10,inactive: 0.54
11,B11,inactive: 1.01
12,B12,inactive: 1.07
13,B13,inactive: 0.323
14,B14,inactive: 1.04
15,B15,inactive: 0.764
16,B16,inactive: 0.565
17,B17,inactive: 0.713
18,B18,inactive: 0.738
19,B19,inactive: 1.25

row,Binder,enrichment score
1,B20,inactive: 0.826
2,B21,inactive: 0.655
3,B22,inactive: 1.46
4,B23,inactive: 0.734
5,B24,inactive: 0.919
6,B25,inactive: 0.917
7,B26,inactive: 2.07
8,B27,inactive: 0.659
9,B28,inactive: 1.09
10,B29,inactive: 0.529
11,B30,inactive: 0.68
12,B31,inactive: 0.545
13,B32,inactive: 0.657
14,B33,inactive: 0.157
15,B34,inactive: 2.58
16,B35,inactive: 1.31
17,B36,inactive: 0.581
18,B37,inactive: 2.91

# Target: SHP2 N-SH2 domain T52S
# Assay: as above
# Conditions: peptide library: pTyr-Var
row,Binder,enrichment score
1,B1,inactive: 1.09
2,B2,inactive: 1.13
3,B3,inactive: 0.582
4,B4,inactive: 1.41
5,B5,inactive: 0.927
6,B6,inactive: 0.521
7,B7,inactive: 0.784
8,B8,inactive: 0.576
9,B9,inactive: 1.31
10,B10,inactive: 0.859
11,B11,inactive: 0.882
12,B12,inactive: 1.16
13,B13,inactive: 0.332
14,B14,inactive: 1.39
15,B15,inactive: 0.859
16,B16,inactive: 0.738
17,B17,inactive: 0.996
18,B18,inactive: 1.08
19,B19,inactive: 0.662

row,Binder,enrichment score
1,B20,inactive: 0.949
2,B21,inactive: 0.792
3,B22,inactive: 1.3
4,B23,inactive: 0.793
5,B24,inactive: 0.752
6,B25,inactive: 0.925
7,B26,inactive: 1.89
8,B27,inactive: 0.579
9,B28,inactive: 0.791
10,B29,inactive: 0.465
11,B30,inactive: 0.895
12,B31,inactive: 0.715
13,B32,inactive: 0.277
14,B33,inactive: 0.232
15,B34,inactive: 2.99
16,B35,inactive: 1.04
17,B36,inactive: 0.907
18,B37,inactive: 1.34

# Target: SHP2 N-SH2 domain wild-type
# Assay: as above
# Conditions: peptide library: pTyr-Var
row,Binder,enrichment score
1,B1,inactive: 1.17
2,B2,inactive: 0.95
3,B3,inactive: 0.535
4,B4,inactive: 1.29
5,B5,inactive: 0.983
6,B6,inactive: 0.543
7,B7,inactive: 0.94
8,B8,inactive: 0.765
9,B9,inactive: 1.15
10,B10,inactive: 0.901
11,B11,inactive: 0.896
12,B12,inactive: 1.24
13,B13,inactive: 0.428
14,B14,inactive: 1.05
15,B15,inactive: 0.757
16,B16,inactive: 0.735
17,B17,inactive: 0.626
18,B18,inactive: 1.64
19,B19,inactive: 0.95

row,Binder,enrichment score
1,B20,inactive: 1.02
2,B21,inactive: 0.95
3,B22,inactive: 1.59
4,B23,inactive: 0.837
5,B24,inactive: 0.849
6,B25,inactive: 0.728
7,B26,inactive: 1.16
8,B27,inactive: 0.543
9,B28,inactive: 0.757
10,B29,inactive: 0.483
11,B30,inactive: 0.983
12,B31,inactive: 0.541
13,B32,inactive: 0.512
14,B33,inactive: 0.289
15,B34,active: 4.07
16,B35,inactive: 1.02
17,B36,inactive: 0.958
18,B37,inactive: 1.31
